Data reported in article PMC4335047, “Interaction between the tRNA-Binding and C-Terminal Domains of Yeast Gcn2 Regulates Kinase Activity In Vivo” (PLoS Genetics, 2015).
Numbering of substitutions follows the chain as printed. Results are given in words; binding and its absence hold for the method and conditions named. Some binding calls cover weakened binding; strength is not graded here. Tags and fused reporters may be left off the sequences shown.

Tests used:
[1] = target: T1, lexA-HisRS (Gcn2 residues 970–1497) Y1092C/T1328S/A1353V (S. cerevisiae) (UniProt P15442); assay: two-hybrid; lexA-HisRS and B42-CTD fusions in yeast with lexAop-lacZ reporter; β-galactosidase activity in cell extracts of three or more transformants; galactose/raffinose medium, nonstarvation conditions
T1 sequence: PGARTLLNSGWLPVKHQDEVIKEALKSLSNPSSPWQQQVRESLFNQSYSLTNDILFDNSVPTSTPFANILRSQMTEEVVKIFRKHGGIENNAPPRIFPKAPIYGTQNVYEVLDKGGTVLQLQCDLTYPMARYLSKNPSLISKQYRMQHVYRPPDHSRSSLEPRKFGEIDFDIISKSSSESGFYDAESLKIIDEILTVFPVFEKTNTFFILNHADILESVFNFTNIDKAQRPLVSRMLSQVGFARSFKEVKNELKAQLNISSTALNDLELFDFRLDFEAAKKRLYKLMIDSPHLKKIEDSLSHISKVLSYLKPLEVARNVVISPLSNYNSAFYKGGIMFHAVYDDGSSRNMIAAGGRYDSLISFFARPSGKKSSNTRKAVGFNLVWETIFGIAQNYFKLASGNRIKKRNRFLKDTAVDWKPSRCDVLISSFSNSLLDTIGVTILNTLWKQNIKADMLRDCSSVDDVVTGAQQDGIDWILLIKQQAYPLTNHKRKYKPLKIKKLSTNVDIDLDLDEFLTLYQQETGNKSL

[2] = target: T2, lexA-HisRS (Gcn2 residues 970–1497), wild type (S. cerevisiae) (UniProt P15442); assay: as above
T2 sequence: T1 sequence with C123Y, S359T, V384A

[3] = target: T3, lexA-HisRS (Gcn2 residues 970–1497) D1327A (S. cerevisiae) (UniProt P15442); assay: as above
T3 sequence: T1 sequence with C123Y, D358A, S359T, V384A

[4] = target: T4, lexA-HisRS (Gcn2 residues 970–1497) D1327K (S. cerevisiae) (UniProt P15442); assay: as above
T4 sequence: T1 sequence with C123Y, D358K, S359T, V384A

[5] = target: T5, lexA-HisRS (Gcn2 residues 970–1497) Y1092C/T1328S/A1353V/D1327K (S. cerevisiae) (UniProt P15442); assay: as above
T5 sequence: T1 sequence with D358K

[6] = target: T3, lexA-HisRS (Gcn2 residues 970–1497) D1327A (S. cerevisiae); assay: condition: only cells starved for isoleucine/valine with sulfometuron methyl (0.5 μg/mL); two-hybrid; as a1, but cells starved for isoleucine/valine with sulfometuron methyl (0.5 μg/mL)
[7] = target: T4, lexA-HisRS (Gcn2 residues 970–1497) D1327K (S. cerevisiae); assay: as above

- binding [1]: binds weakly
- binding [2]: binds weakly
- binding [3]: binds
- binding [4]: binds
- binding [5]: binds
- binding [6]: no binding
- binding [7]: no binding
B1: B42-CTD (fusion of the B42 activation domain to the Gcn2 CTD) (domain or fragment, UniProt P15442 1498-1659)
chain: INDSLTLGDKADEFKRWDENSSAGSSQEGDIDDVVAGSTNNQKVIYVPNMATRSKKANKREKWVYEDAARNSSNMILHNLSNAPIITVDALRDETLEIISITSLAQKEEWLRKVFGSGNNSTPRSFATSIYNNLSKEAHKGNRWAILYCHKTGKSSVIDLQR
